Results published in the supplement of paper PMC4166925.
± gives the standard deviation of the averaged measurements. In all, about 33,000 sequences were measured (“E-score (dimensionless, -0.5 to 0.5)”: median about -0.046, highest 2% from about 0.36 on). Some of the results follow.

The sequences below were run on T1, SpTbr T-box DNA-binding domain (GST fusion) (assay: PBM E-score of 8-mer (E-score (dimensionless, -0.5 to 0.5)); Tbr is Tbrain of the sea star Patiria miniata (Pm) or the sea urchin Strongylocentrotus purpuratus (Sp); higher = stronger binding preference; most listed sequences are background and not binding sites). Conditions: the construct has about 5 more residues each side.
T1 sequence: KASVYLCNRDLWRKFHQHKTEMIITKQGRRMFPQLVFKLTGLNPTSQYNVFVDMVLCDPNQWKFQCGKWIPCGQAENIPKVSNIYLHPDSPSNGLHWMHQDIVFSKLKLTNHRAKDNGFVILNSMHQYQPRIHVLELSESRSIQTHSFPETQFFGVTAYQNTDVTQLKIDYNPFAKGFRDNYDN
How it was run: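 Primer extension turned Universal Agilent oligonucleotide arrays double-stranded. They were incubated with 200 nM protein in PBS (pH 7.5); the protein was a GST-fused Tbr T-box DNA-binding domain expressed in BL21 E. coli at 20 °C and purified on glutathione. Every ungapped 8-mer was scored from the scanned, quantified probe intensities, and the Universal PBM Analysis Suite gave each an enrichment E-score averaged over duplicate arrays.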

Q: Which “PBM E-score of 8-mer” value does the source give for AGAGTAGG here?
A: -0.2048 ± 0.001

Q: With ACTCTTGC as the sequence, how does the “PBM E-score of 8-mer” value read?
A: -0.146 ± 0.036

Q: With AGTCAAAT as the sequence, how does the “PBM E-score of 8-mer” value read?
A: -0.128 ± 0.0056

Q: ATGATAGG was tested. Which “PBM E-score of 8-mer” value did it give?
A: -0.0451 ± 0.051

Q: With AGGGTCCA as the sequence, how does the “PBM E-score of 8-mer” value read?
A: -0.251 ± 0.041

Q: Which “PBM E-score of 8-mer” value does the source give for GCATACGC here?
A: -0.176 ± 0.088

Q: With AGCAGTAA as the sequence, how does the “PBM E-score of 8-mer” value read?
A: -0.0816 ± 0.014

Q: For GTGGTTTA, which “PBM E-score of 8-mer” value is on record?
A: -0.0725 ± 0.0017

Q: How did the “PBM E-score of 8-mer” value turn out when CAGAGCGA was run?
A: -0.0771 ± 0.06

Q: For TTATTCAA, which “PBM E-score of 8-mer” value is on record?
A: -0.192 ± 0.064

Q: For AGGGGCGA, which “PBM E-score of 8-mer” value is on record?
A: 0.0688 ± 0.05

Q: For CCTCGCAA, which “PBM E-score of 8-mer” value is on record?
A: 0.102 ± 0.077

Q: For GCGCGCCA, which “PBM E-score of 8-mer” value is on record?
A: 0.133 ± 0.087

Q: For ACATCTAA, which “PBM E-score of 8-mer” value is on record?
A: -0.0272 ± 0.027

Q: For AACCCTCG, which “PBM E-score of 8-mer” value is on record?
A: -0.144 ± 0.00099

Q: How did the “PBM E-score of 8-mer” value turn out when CTCCGGAG was run?
A: -0.102 ± 0.1

Q: How did the “PBM E-score of 8-mer” value turn out when ACATTGAG was run?
A: -0.0909 ± 0.037

Q: For GACTTAGA, which “PBM E-score of 8-mer” value is on record?
A: -0.151 ± 0.12

Q: Which “PBM E-score of 8-mer” value does the source give for CACCCTTC here?
A: 0.223 ± 0.091

Q: Which “PBM E-score of 8-mer” value does the source give for TTACATAA here?
A: -0.159 ± 0.063

Q: With TCCGCGGA as the sequence, how does the “PBM E-score of 8-mer” value read?
A: 0.12 ± 0.015

Q: With CAACAAAA as the sequence, how does the “PBM E-score of 8-mer” value read?
A: 0.0801 ± 0.058

Q: AGGAAACG was tested. Which “PBM E-score of 8-mer” value did it give?
A: -0.0312 ± 0.015

Q: For CCCGTAAC, which “PBM E-score of 8-mer” value is on record?
A: 0.04512 ± 0.00042

Q: With TGAGGCAA as the sequence, how does the “PBM E-score of 8-mer” value read?
A: -0.0235 ± 0.018

Q: With ACTCTATG as the sequence, how does the “PBM E-score of 8-mer” value read?
A: -0.0733 ± 0.034

Q: For ACGGTCAG, which “PBM E-score of 8-mer” value is on record?
A: 0.0832 ± 0.032

Q: For ACTGTGAA, which “PBM E-score of 8-mer” value is on record?
A: 0.413 ± 0.0064

Q: CACTTGCA was tested. Which “PBM E-score of 8-mer” value did it give?
A: 0.336 ± 0.012

Q: How did the “PBM E-score of 8-mer” value turn out when CAAGGCGA was run?
A: 0.159 ± 0.041

Q: GGTGAGAA was tested. Which “PBM E-score of 8-mer” value did it give?
A: 0.4745 ± 0.0016

Q: Which “PBM E-score of 8-mer” value does the source give for ACTCGATC here?
A: -0.0258 ± 0.031

Q: For CAGTTACG, which “PBM E-score of 8-mer” value is on record?
A: -0.05462 ± 0.00042

Q: TCCAGAAA was tested. Which “PBM E-score of 8-mer” value did it give?
A: -0.167 ± 0.023

Q: For ATGCTATC, which “PBM E-score of 8-mer” value is on record?
A: 0.011 ± 0.02

Q: Which “PBM E-score of 8-mer” value does the source give for CTAAGTGA here?
A: 0.104 ± 0.047

Q: With GCGCCATA as the sequence, how does the “PBM E-score of 8-mer” value read?
A: 0.0555 ± 0.011

Q: With AGTTTGCA as the sequence, how does the “PBM E-score of 8-mer” value read?
A: 0.136 ± 0.066

Q: Which “PBM E-score of 8-mer” value does the source give for AAATGCAG here?
A: -0.289 ± 0.028

Q: For TCTTGCCA, which “PBM E-score of 8-mer” value is on record?
A: 0.0555 ± 0.002

Q: Which “PBM E-score of 8-mer” value does the source give for TCAGGGAA here?
A: -0.125 ± 0.011

Q: CGTCGTAA was tested. Which “PBM E-score of 8-mer” value did it give?
A: -0.0772 ± 0.029

Q: Which “PBM E-score of 8-mer” value does the source give for CACAGATC here?
A: 0.0391 ± 0.007

Q: With AATGGGTC as the sequence, how does the “PBM E-score of 8-mer” value read?
A: -0.142 ± 0.097

Q: For CCGATCCC, which “PBM E-score of 8-mer” value is on record?
A: -0.168 ± 0.0025

Q: With AAGATTGG as the sequence, how does the “PBM E-score of 8-mer” value read?
A: -0.15 ± 0.095

Q: GGCACGAC was tested. Which “PBM E-score of 8-mer” value did it give?
A: 0.00524 ± 0.06

Q: With AAATTCTG as the sequence, how does the “PBM E-score of 8-mer” value read?
A: -0.136 ± 0.06

Q: With CAACTTCC as the sequence, how does the “PBM E-score of 8-mer” value read?
A: -0.0224 ± 0.038

Q: Which “PBM E-score of 8-mer” value does the source give for ACCTAGTG here?
A: 0.2 ± 0.013

Q: With AGAGACTA as the sequence, how does the “PBM E-score of 8-mer” value read?
A: -0.106 ± 0.01

Q: With CACAGCTC as the sequence, how does the “PBM E-score of 8-mer” value read?
A: 0.248 ± 0.034

Q: Which “PBM E-score of 8-mer” value does the source give for CATGTGGG here?
A: 0.0753 ± 0.0088

Q: With AACGGTTC as the sequence, how does the “PBM E-score of 8-mer” value read?
A: 0.12 ± 0.019

Q: For CACAGTGA, which “PBM E-score of 8-mer” value is on record?
A: 0.207 ± 0.049

Q: How did the “PBM E-score of 8-mer” value turn out when ACCTGTTC was run?
A: 0.193 ± 0.013

Q: Which “PBM E-score of 8-mer” value does the source give for AAAGACAA here?
A: -0.162 ± 0.0039

Q: For CCGGCAAA, which “PBM E-score of 8-mer” value is on record?
A: -0.182 ± 0.08

Q: Which “PBM E-score of 8-mer” value does the source give for ACACCATC here?
A: 0.3674 ± 0.0022

Q: For AGCACAAT, which “PBM E-score of 8-mer” value is on record?
A: 0.0742 ± 0.023

Q: With GTAATAAA as the sequence, how does the “PBM E-score of 8-mer” value read?
A: -0.155 ± 0.051

Q: How did the “PBM E-score of 8-mer” value turn out when GTCAGTTA was run?
A: 0.0997 ± 0.035

Q: For ACCGACGT, which “PBM E-score of 8-mer” value is on record?
A: -0.1251 ± 0.00093

Q: With ATCTACTG as the sequence, how does the “PBM E-score of 8-mer” value read?
A: -0.163 ± 0.0056

Q: For GCACGTTA, which “PBM E-score of 8-mer” value is on record?
A: 0.202 ± 0.041

Q: How did the “PBM E-score of 8-mer” value turn out when CCCAGGCG was run?
A: -0.0389 ± 0.089

Q: CTCTTCTC was tested. Which “PBM E-score of 8-mer” value did it give?
A: -0.0569 ± 0.048

Q: How did the “PBM E-score of 8-mer” value turn out when CATTCACA was run?
A: 0.427 ± 0.014

Q: For ACTTGCTC, which “PBM E-score of 8-mer” value is on record?
A: 0.06898 ± 0.00037

Q: ACCATAAT was tested. Which “PBM E-score of 8-mer” value did it give?
A: 0.0573 ± 0.041

Q: How did the “PBM E-score of 8-mer” value turn out when CATGTTTA was run?
A: -0.0355 ± 0.09

Q: With GGAACTGA as the sequence, how does the “PBM E-score of 8-mer” value read?
A: -0.00643 ± 0.048

Q: ACGGATAG was tested. Which “PBM E-score of 8-mer” value did it give?
A: -0.0189 ± 0.0053

Q: With ACGGCCGA as the sequence, how does the “PBM E-score of 8-mer” value read?
A: -0.293 ± 0.012

Q: For CAGCGTCG, which “PBM E-score of 8-mer” value is on record?
A: -0.0615 ± 0.045

Q: For ATGTAAGG, which “PBM E-score of 8-mer” value is on record?
A: -0.121 ± 0.051

Q: With CCAGAGCC as the sequence, how does the “PBM E-score of 8-mer” value read?
A: -0.186 ± 0.031

Q: CGCTTCTC was tested. Which “PBM E-score of 8-mer” value did it give?
A: 0.0904 ± 0.024

Q: GACTAATA was tested. Which “PBM E-score of 8-mer” value did it give?
A: -0.1458 ± 0.0012

Q: GATCTATA was tested. Which “PBM E-score of 8-mer” value did it give?
A: 0.0294 ± 0.074

Q: ACCTGTCC was tested. Which “PBM E-score of 8-mer” value did it give?
A: 0.151 ± 0.0082

Q: CTGGCCAC was tested. Which “PBM E-score of 8-mer” value did it give?
A: 0.0324 ± 0.095

Q: Which “PBM E-score of 8-mer” value does the source give for CAAACCCG here?
A: 0.0374 ± 0.013

Q: Which “PBM E-score of 8-mer” value does the source give for AGTTAGCC here?
A: -0.128 ± 0.013

Q: With TAGAAATA as the sequence, how does the “PBM E-score of 8-mer” value read?
A: -0.238 ± 0.017

Q: For AGTGAACA, which “PBM E-score of 8-mer” value is on record?
A: 0.175 ± 0.0043
